Measurements from PMC4336329 (PLoS ONE, 2015).
About 2,200 (0.71%) of roughly 310,000 compounds showed an effect of 50% or more. Effects have a minus sign here. Some of the results follow.

target: human ether-à-go-go-related gene (hERG) potassium channel (human, UniProt Q12809); test: primary screen, population patch clamp on CHO cells stably expressing hERG
Sequence (Q12809 whole entry, looked up): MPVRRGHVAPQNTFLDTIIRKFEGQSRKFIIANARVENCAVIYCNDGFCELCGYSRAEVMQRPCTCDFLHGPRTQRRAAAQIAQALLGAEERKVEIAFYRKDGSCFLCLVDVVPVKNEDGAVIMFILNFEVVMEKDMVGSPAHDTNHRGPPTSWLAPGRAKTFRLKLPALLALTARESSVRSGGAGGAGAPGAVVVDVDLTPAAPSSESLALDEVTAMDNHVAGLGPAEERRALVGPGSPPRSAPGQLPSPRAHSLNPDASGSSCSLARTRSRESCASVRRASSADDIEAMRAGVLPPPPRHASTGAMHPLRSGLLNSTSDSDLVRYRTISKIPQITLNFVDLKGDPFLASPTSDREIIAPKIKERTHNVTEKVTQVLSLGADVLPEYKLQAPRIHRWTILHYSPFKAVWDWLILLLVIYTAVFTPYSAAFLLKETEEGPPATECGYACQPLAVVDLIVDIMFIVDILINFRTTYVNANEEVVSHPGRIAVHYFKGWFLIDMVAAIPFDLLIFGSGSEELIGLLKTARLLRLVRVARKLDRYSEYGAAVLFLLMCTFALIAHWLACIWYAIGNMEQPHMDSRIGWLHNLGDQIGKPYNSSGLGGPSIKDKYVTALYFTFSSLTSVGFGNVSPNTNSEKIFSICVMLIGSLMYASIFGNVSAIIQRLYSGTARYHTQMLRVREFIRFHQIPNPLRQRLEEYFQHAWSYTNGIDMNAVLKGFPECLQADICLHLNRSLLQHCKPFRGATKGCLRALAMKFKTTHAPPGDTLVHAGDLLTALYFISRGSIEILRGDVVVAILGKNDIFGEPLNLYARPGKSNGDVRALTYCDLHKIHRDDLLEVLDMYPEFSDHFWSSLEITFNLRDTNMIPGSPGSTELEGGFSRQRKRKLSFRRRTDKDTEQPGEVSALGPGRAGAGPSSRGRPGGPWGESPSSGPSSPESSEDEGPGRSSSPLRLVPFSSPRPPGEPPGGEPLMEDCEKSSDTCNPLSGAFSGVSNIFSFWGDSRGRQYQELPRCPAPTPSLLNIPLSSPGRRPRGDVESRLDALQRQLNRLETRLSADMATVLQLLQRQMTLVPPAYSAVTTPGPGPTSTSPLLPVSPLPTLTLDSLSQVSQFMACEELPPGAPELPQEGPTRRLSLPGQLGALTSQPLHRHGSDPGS

SMILES	hERG current change (%, negative = inhibition) at 1uM [%]
O=C(c1cc(COc2c(F)cccc2F)on1)N(Cc1ccccc1)CC1CC1	5.15
N=C1C(=O)OCC1c1ccccc1NC(=O)c1ccccc1 (centres unmarked)	14.8
O=C(CSc1ccc([N+](=O)[O-])cc1)OCC(=O)N1CCCC1=O	-2.35
CCOC(=O)c1c(NC(=O)COC(=O)c2ccc([N+](=O)[O-])cc2)sc(C(=O)N(C)C)c1C	8.47
COc1ccccc1CC(NC(C)=O)C(=O)NC1CCN(C(=O)Nc2ccccc2Cl)CC1 (centres unmarked)	3.64
Cl.O=C(CN1CCOCC1)NCc1ccc(F)cc1	15.9
O=C(C=C=Nc1ccccc1)C(=O)N=C=Cc1ccccc1	14.1
Cc1ccc(NC(=S)N/N=C2\CC(C)(C)Oc3ccc(O)cc32)cc1	3.09
COc1ccc(Cn2nnnc2C(c2ccc(F)cc2)N2CCN(C3CCCC3)CC2)cc1 (centres unmarked)	-15
CC(C)[C@H](NC(=O)c1ccc(Cl)c([N+](=O)[O-])c1)C(=O)NCc1ccc(F)cc1	10.1
Cc1ccc(CSCC(=O)N(C)CC(=O)Nc2cccc(F)c2)cc1	0.653
Cc1occc1-c1nnc(SCC(=O)Nc2ccc3c(c2)OCO3)n1CC1CCCO1 (centres unmarked)	2.19
CCOc1ccc(NC(=O)CN(C)C(=O)c2cc(-c3cccs3)nn2-c2ccccc2)cc1OCC	-14.3
CCOC(=O)c1cnc(SCCc2ccccc2)nc1N	12.3
O=C(C1CCCN1S(=O)(=O)c1ccc(Br)cc1)N1CCOCC1 (centres unmarked)	6.73
O=C(CSc1nnc(CNc2ccc(F)cc2)n1-c1ccccc1)N1CCOCC1	-0.964
CC(C)(C)c1ccc(/C=C(\C#N)C(=O)Nc2ccccn2)cc1	15.4
O=C(COc1ccccc1Cl)N1CCN(c2ncccn2)CC1	5.11
CCCCN(C(=O)c1ccc(C)o1)c1c(N)n(CC(C)C)c(=O)[nH]c1=O	12.2

SMILES	hERG current change (%, negative = inhibition) at 1uM [%]
CC(/C=C/c1ccco1)=N\NC(=O)c1cccc(Cl)c1	12.2
Cc1[nH]c(C)c(S(=O)(=O)NCc2ccc(N(C)C)cc2)c1C(=O)N1CCCC1	9.62
CCN(CC)S(=O)(=O)c1cccc(-c2nnc(SCC(=O)NC)n2N)c1	11.9
O=C(c1ccc(S(=O)(=O)Nc2ccccc2F)cc1)N1CCN(c2ccccc2O)CC1	6.88
Cc1ccc(CNC(=O)COC(=O)C2CC2)cc1	9.64
O=C(NCCOc1cccc(Cl)c1Cl)c1cc(-n2cnnc2)ccc1Cl	-6.67
c1ccc(-c2nccc3ccccc23)cc1	6.57
O=C(CNC(=O)c1ccc2ccccc2c1)Nc1ncccc1O	6.56
Cc1cc(OC(C)C(=O)N/N=C/CC(C)c2ccccc2)ccc1Cl (centres unmarked)	14
O=C(O)C1C2C=CC3(CN(Cc4ccncc4)C(=O)C13)O2 (centres unmarked)	16.1
CCOC(=O)c1ccccc1NC(=O)CN(c1cccc(OC)c1)S(C)(=O)=O	3.7
O=C(NCCOc1ccccc1)C1Nc2ccc(C(F)(F)F)cc2C2c3ccccc3CC12 (centres unmarked)	6.96
CC(C)(C)NC(=O)c1ccc2c(c1)C1C3CCC(C3)C1C(c1ccccc1)N2 (centres unmarked)	8.02
O=[N+]([O-])c1ccc(Cl)c(S(=O)(=O)Nc2cccc(-c3ccc(N4CCCC4)nn3)c2)c1	10.8
Cc1ccc(NC(=O)C2Oc3ccccc3OC2C)cc1 (centres unmarked)	13
O=C(c1ccc([N+](=O)[O-])s1)N1CCc2ccccc21	18.7
CCc1noc(C)c1C(=O)Nc1nc2c(F)cc(F)cc2s1	13.1
O=C(COc1ccccc1)Nc1ccncc1Cl	6.36
Cn1c(-c2sc3cc(C(F)(F)F)cnc3c2-c2ccccc2)n[nH]c1=S	15.6

SMILES	hERG current change (%, negative = inhibition) at 1uM [%]
O=C1Nc2cc(C(=O)NCC3CCCO3)ccc2S/C1=C/c1ccccc1F (centres unmarked)	15.1
Cc1cc(C(=O)CSc2nc3ccccc3c(=O)[nH]2)c(C)n1C	3.95
Cc1ccccc1NCC(=O)N/N=C/c1c(C)c(C(=O)c2ccc(Cl)cc2)n2ccccc12	-0.586
COc1ccc(N=N/C(=C\O)C(=O)c2cccs2)cc1	18.7
CC(=O)c1ccc(NC(=O)CSC(=S)N2CCCC2)cc1	5.67
CC(=O)Nc1ccc(C2=CC(=O)CC(C)(C)C2)cc1	13.3
COc1ccccc1C1CC(c2ccco2)=NN1c1ccccc1 (centres unmarked)	14.2
CN(C)CCN=Cc1c(O)n(CCC2=CCCCC2)c(=O)[nH]c1=O	-1.37
CN(C)c1nc(N(C)C)nc(N2CC(CCl)OC2=N)n1 (centres unmarked)	2.83
FC(F)Oc1ccc(NC(=S)NCc2cccnc2)cc1	6.01
O=C(N[C@@H]1CCC(=O)N(CC[C@H](Sc2ccc(Br)cc2)c2ccccc2)CC1)OCc1ccccc1	15.5
CCSc1nc2ccccc2n1S(=O)(=O)c1ccccc1	12.1
Cc1ccccc1CS(=O)(=O)Cc1ccc(C(=O)NCc2cccnc2)o1	14.1
Cc1cccc(N(Cc2ccccc2)C(=O)c2ccc(F)c(S(=O)(=O)N3CCOCC3)c2)c1	-10.3
CC1(OC(=O)CCc2ccccc2)C(=O)C=C2C=C(c3ccsc3)OC=C2C1=O (centres unmarked)	5.48
COc1ccc(-c2nnc(NC(=O)C3CCCO3)s2)cc1 (centres unmarked)	12.9
O=C(CSc1nnc(-c2ccccc2Br)o1)Nc1nncs1	-63.5
COc1ccccc1C1CCN(C(=O)c2ccccc2)CC1	11.9
